Read counts are not given, so values of variants with three or more changes are uncertain.
B1: LINE1-full (parent)
chain: UACGUAGGUGGUUUUCCCCUGAUAGUGCUAAGGGGGCCUGGAAGUUUGGACUGGGCAGAGCUCAACACAGCGUGGCAAAGUGGCUGUGGCUAGACUGCCUCUCUGGAUUCCUCGUCACUCAGCAGGGCAUCUCUGAGAGAAAUGCC

Variants of: B1
Assay: self-cleavage, relative activity (ratio to wild type); higher = more cleavage; in vitro, sequencing; the parent is a self-cleaving ribozyme

Variant | self-cleavage
U100C A124G A141G | 0.98
U104A C118U U132C A138U A141G | 2.73
G105U C123U A142G | 1.21
U96C U109C U112C A129U | 0
U112C U115C U134A | 0.81
U102C A124G A140G | 0
A94U C101U A140G | 0.15
U96C U102C U143C | 0.09
U109A U132C A140G A142G | 0.38
U102A U112C U130A A141G | 1.75
A136U A142G G144A | 1.64
C113U A117G U143C | 0.71
C113U U132C U143G | 1.36
A124G U132C A136U | 2.16
U119A A140G U143C | 0.88
U112C A136G A140U | 2.27
U96C U108C U130C A138U | 0
A124G U132C U134C | 1.1
U109A U119C U130C | 2.39
U119A A124U G135U | 1.37
U115C A136G A141G | 0.92
A94G C131A G139A | 0.61
A107U U108C A138G | 1.73
U109C U132C A136U | 1.58

Variant | self-cleavage
A107G U112C A121G | 0.77
U112C A124U A142G | 1.83
A124G A136G A142G | 1.07
U112C A138G A142C | 0.77
A94G U96G U112A A136G | 0.39
C113U A140U A141G U143A | 0.66
U96C C110U U143A C146U | 0.15
A124G U130C U132C | 2.12
U115C U134A U143A | 1.02
A107U A136G A141G A142G | 0
U102C U119A A129C | 1.27
U104G U108C A136U A141G | 0
U96C U109C U143C | 0.04
U104G U112C A140G | 0
A94G U115C A141G | 1.15
C110A U115C A140G | 1.05
A107G A121U U134A | 0.66
U102A U108C U115A | 1.48
A124U U130A U132A | 1.99
U115A A124C U132A | 1.81
A94G U119C A136G | 0
U104A C113A A141G | 1.22
U96C A140G A141G A142G | 0
U115C G126U A129G | 2.37

Variant | self-cleavage
U102C U104G G122A | 1.19
U102C U108C A141G | 1.11
U115C U134C A136G | 2.53
U108C G137U A141G | 0.76
A94G U132C A141G | 0.54
A124U A136U G144A | 1.38
C120U A124G U143C | 1.29
C116A A129G A140U | 0.44
U109C A136U A138G | 0.97
C95U U108C U134A | 0.16
U108C U132C G137A | 2.13
U100G U115A A140U | 1.45
U96C U115A A140U | 0.13
A136G A140G G144A | 1.48
C103U A136G U143C | 1.64
U115C U130C U143C | 1.53
U108A U109A A129G | 0.84
U109C A121G U132C | 0
C128U A141G U143A | 1.5
U109C A117U A141G | 1.9
A121G A124C U143A | 1.06
G97A C116A A124G A138G | 0.05
U108A A129G A142G | 1.77
A107G A117C U119C | 1.45

Variant | self-cleavage
U130C A136U A138U | 1.19
C98U U112C A138G A142G | 0.3
U96C A121G A129U A142G | 0.11
U109C G114A G137A | 0.71
G105A U112C A138G | 1.66
A94U G106A U130A C131A A136U | 0.34
U104C C116U A142G | 1.65
G97A C128U G135U | 0.31
C99U A124G U143C | 0.44
A121G U132A A142G | 0.46
U102A A129G A142G | 1.69
G126A A136G A138G | 1.54
U112C U119C A140U A141G C145A | 1.52
U100C U104G G114A | 0.59
A94G A129U A141U | 0.22
U119A A136G A141G | 1.87
G97A C133G A138G | 0.49
U100C A121G A129G | 1.02
U132C U134A U143A | 0.47
A124G G127A A140G | 0.55
A124U A129G A142G | 1.84
C95A U119A A140U | 0.06
U115A A124G A129G | 1.36
C95U U119A A121U | 0.13

Variant | self-cleavage
U96A A124U A140G | 0.08
U102C U115A G125U U143C | 0.74
U96C A117U C118A U143A | 0.05
A107G U115A A136G | 2.19
U112C A117G A140G | 0
U100C U115A G135A | 2.79
U112A U115C U134C | 1.98
A121G C133U A138G U143C | 2.53
A107U U109A A124U A136G | 2.29
U104C A129G U134A | 1.72
U104A U109A U132C C145A | 0.92
U96A A129G A140G | 0
A107G U115G U132C A138G | 0
U119A U132C A140G | 2.15
U102C A124G U134C | 2.12
U100C U112C A142G | 1.91
U96A C101U A129G | 0.09
U96A G97U U102C A121G | 0
A94G U119C U143C | 0.5
C118A U132A A141G | 1.43
U102C U109C U132C C145U | 1.2

— the RNAGym collection of RNA variant scans (doi:10.7554/elife.90254)
